Consider 41 compounds from ChEMBL document CHEMBL4888484, “Replenishing the malaria drug discovery pipeline: Screening and hit evaluation of the MMV Hit Generation Library 1 (HGL1) against asexual blood stage Plasmodium falciparum ,using a nano luciferase reporter read-out” (2022).

SMILES strings stand for the structures. Screen size: about 150,000 compounds; about 540 (0.36%) showed an effect of 50% or more. This is one part of the list.

What is called % Inhibition is the change of the read-out against control, counted positive when it falls.

This assay relates to Plasmodium falciparum. As to the kind of experiment: Primary screen in NF54 nanoGlo assay, in single point, at 2uM, 72h; a lower Z score goes with more inhibition. The settings on record: timepoint 72 hour. In kind it is functional, Erythrocyte.
`COCC[C@]1(NC(=O)c2ccc(F)cc2)CCN(C(=O)c2cnco2)C1`: the “% Inhibition” value is -1% and the Z score came to 0.14.

In the case of `CCc1n[nH]c2c1CN(Cc1cccc(O)c1Cl)CC2`, the “% Inhibition” value is given as -9% and the Z score amounted to 0.86.

As to `COc1ccc(C2=NS(=O)(=O)N(C)C(C(=O)N3CCc4ccccc4C3)=C2)cc1OC`, the “% Inhibition” value is -9% and the Z score turned out to be 1.74.

For `C[C@@H](c1ccccc1)N(Cc1nc(C(=O)N2CCN(C)CC2)co1)Cc1ccc(Cl)cc1Cl`, the “% Inhibition” value was -2% and the Z score is 0.3.

On to `Cc1ccc(NS(=O)(=O)c2cc(-c3nc(C)c(C)s3)sc2C)c(C)c1`, for which the “% Inhibition” value is -5% and the Z score was determined as 0.62.

In the case of `NC(=O)c1cnc2n1CCN(C(=O)c1cnc3ccc(F)cc3c1N)C2`, the “% Inhibition” value is -12% and the Z score is 1.24.

`O=C(N1CCn2c(Cc3cccc(F)c3)nnc2C1)[C@@]12CCC[C@@H]1C2`: the “% Inhibition” value is given as -10% and the Z score is listed as 1.31.

In the case of `Cc1ccc(Cl)cc1N1CCC(CNC(=O)c2ncoc2C2CCCO2)C1` (configuration not stated), the “% Inhibition” value is listed as -5% and the Z score is reported as 0.53.

`Cc1nsc(C)c1C(=O)N1CCC(S(=O)(=O)N2CCCC2)CC1`: the “% Inhibition” value is -12% and the Z score is 1.85.

With `COc1cc(-c2noc(CN3CCCCC[C@@H]3CCO)n2)cc(Cl)c1OC`, the “% Inhibition” value was determined as 2% and the Z score is given as -0.29.

Take `CCO[C@H]1CN(CC)C[C@@H]1NC(=O)c1cc(=O)cc(C)[nH]1`: the “% Inhibition” value is -7% and the Z score was 1.51.

Consider `O=C(Nc1nc(-c2ccc(Br)o2)ns1)c1ccco1`, for which the “% Inhibition” value is listed as -8% and the Z score is reported as 1.09.

`O=C1CC[C@@]2(CCCN(c3nc4ccccc4s3)C2)CN1Cc1ccccn1`: the “% Inhibition” value was 1% and the Z score is on record as -0.16.

In the case of `COC(=O)c1conc1C(C)(C)NC(=O)c1cc(Cl)cn1C`, the “% Inhibition” value was -12% and the Z score worked out at 1.21.

As to `Cc1ccc(NS(=O)(=O)c2ccc(NC(=O)CN(c3cc(Cl)ccc3C)S(C)(=O)=O)cc2)cc1C`, the “% Inhibition” value was determined as 37% and the Z score is reported as -4.19.

Turning to `COC(=O)c1ccc(N2CCN(C(=O)C[C@H](C)n3ccnc3)CC2)cc1`, the “% Inhibition” value is given as -3% and the Z score was 0.47.

Take `Cc1nn(CC(=O)NCCCOC(C)C)c(=O)c2c(C)n(-c3ccccc3)nc12`: the “% Inhibition” value was -9% and the Z score came out at 1.2.

Consider `COC(=O)CNC(=O)NC1CCCC1`, for which the “% Inhibition” value is 11% and the Z score is reported as -1.32.

As to `Cc1nccc(NC(=O)NC[C@H]2CCCCN2C2CC2)n1`, the “% Inhibition” value is -11% and the Z score stood at 1.36.

Consider `COC[C@H]1[C@@H](NS(=O)(=O)c2ccc(F)cc2)[C@H]2CCO[C@H]21`, for which the “% Inhibition” value is given as 5% and the Z score is listed as -0.89.

Turning to `Cc1ccc(C(=O)NC2(c3ncon3)CCOCC2)cc1Cl`, the “% Inhibition” value was -4% and the Z score is reported as 0.37.

As to `O=c1[nH]c(-c2ccccc2Cl)nc2ccccc12`, the “% Inhibition” value is -13% and the Z score is reported as 2.13.

With `CCOc1cc(S(=O)(=O)N2CCC[C@H](n3nc4ccccc4n3)C2)c(OCC)cc1-n1cnnn1`, the “% Inhibition” value was 9% and the Z score was -1.55.

Turning to `COc1ccc(N[C@@H](C)c2cccc(CO)c2)cn1`, the “% Inhibition” value is -10% and the Z score is on record as 1.08.

Consider `CCN(C(=O)CS(=O)(=O)Cc1coc(-c2ccccc2)n1)C1CC1`, for which the “% Inhibition” value is listed as 9% and the Z score is given as -1.1.

As for `CC(C)C(=O)Nc1nc2c(s1)CN(S(=O)(=O)c1ccccc1)CC2`, the “% Inhibition” value is -1% and the Z score is given as 0.13.

`Oc1ccccc1CN(C[C@H]1CCCO1)c1ncc(Br)cn1`: the “% Inhibition” value turned out to be 4% and the Z score is on record as -0.75.

In the case of `Cc1sc(-c2nnc(C(=O)N3CCCCC3)o2)cc1S(=O)(=O)NC1CCCC1`, the “% Inhibition” value was -14% and the Z score is recorded as 2.07.

As to `COc1nccnc1O[C@H]1CCN(C(=O)CC(F)(F)F)C1`, the “% Inhibition” value is -5% and the Z score is recorded as 0.56.

Turning to `OC1=Nc2c(ncn2-c2cccnc2)[C@@H](c2cccc(O)c2)C1`, the “% Inhibition” value is 2% and the Z score is listed as -0.38.

For the compound `Cc1ccc(CCNC(=O)N2C3CCC2CC(c2ccnn2C)C3)c(C)c1` (configuration not stated), the “% Inhibition” value is -11% and the Z score is 1.98.

As to `COCCn1cc2c(n1)[C@@H](Nc1nccc(OC)n1)CCC2`, the “% Inhibition” value is -13% and the Z score was found to be 1.32.

On to `C[C@]1(C(=O)O)CCN(C(=O)c2cc3c(s2)CCCC3)C1`, for which the “% Inhibition” value is -17% and the Z score stood at 3.24.

On to `COc1ccc(-n2nc(C)c(CCC(=O)N3CCOCC3)c2Oc2ccccc2F)cc1`, for which the “% Inhibition” value stood at 1% and the Z score was -0.21.

`O=C(NCc1ccc2c(c1)OCO2)[C@H]1CCn2c(nc3ccccc32)C1`: the “% Inhibition” value is -14% and the Z score is given as 1.46.

In the case of `Cc1cccc(OCC(=O)N2CCCN(c3nc4c(s3)c(C)nn4-c3ccc(F)cc3)CC2)c1`, the “% Inhibition” value was -4% and the Z score was 0.68.

In the case of `CCC1C(C(=O)O)CCN1S(=O)(=O)c1c(C)ccc2cccnc12` (configuration not stated), the “% Inhibition” value is on record as 5% and the Z score is -0.53.

In the case of `Cc1nc[nH]c1CN1C[C@H]2CC[C@@H](C1)N(C(=O)CCc1ccccn1)C2`, the “% Inhibition” value is given as -13% and the Z score is 1.93.

`Cc1oc(-c2ccc(Cl)cc2)cc1C(=O)NC1CC1`: the “% Inhibition” value is reported as -9% and the Z score was 1.55.

`CCOCCCC(=O)N1CCc2nc[nH]c2[C@@]12CCN(C(=O)OC(C)(C)C)C2`: the “% Inhibition” value was -15% and the Z score was 2.19.

Take `COc1ccc(C(=O)NCCc2csc(-n3nc(C)cc3C)n2)cc1OC`: the “% Inhibition” value is 0% and the Z score is 0.02.
